# PubChem BioAssay (Tox21)
# Where “and” joins values, the source holds several entries; their conditions need not be identical. Equal entries are not always repeated. The shares of active, inactive and inconclusive entries below differ from those in the screen. For some of these results: Where the call is inconclusive, the potency comes from a doubtful curve fit. Calls of active or inactive are those of the source. Unless noted, calls follow the shape of the dose curve; as a rule, active = well fitted curve in the direction sought with a large enough effect in the repeat runs; inconclusive = weak or mixed curves; inactive = no such curve, though single readings can be large; an effect the other way counts as inactive or inconclusive.
# Experiments:
# [1] = qHTS assay for identifying genotoxic compounds that show differential cytotoxicity against isogenic chicken DT40 cell lines with known DNA damage response pathways - Rev3 mutant cell line (AID 743014); details: chicken DT40 Rev3-/- viability, CellTiter-Glo, 40 h; activity, negative = cytotoxicity: at 68.4 µM (top of the series) unless noted; also: nearly all actives have a fitted effect of over 55% in size; also: potency is read from the fitted curve at half-maximal effect; as to activity, negative = cytotoxicity: % is scaled to controls: 0 for no effect and ±100 for the full control effect
# [2] = qHTS assay for identifying genotoxic compounds that show differential cytotoxicity against isogenic chicken DT40 cell lines with known DNA damage response pathways - Rad54/Ku70 mutant cell line (AID 743015); details: DT40 Rad54/Ku70 mutant viability, CellTiter-Glo, 40 h; activity change, negative = cytotoxicity: at 66.8 µM (top of the series); also: nearly all actives have a fitted effect of over 60% in size; also: potency is read from the fitted curve at half-maximal effect
# [3] = qHTS assay to identify small molecule antagonists of the thyroid receptor (TR) signaling pathway - cell viability counter screen (AID 743064); details: GH3.TRE-Luc viability, CellTiter-Fluor, 24 h; activity change, negative = cytotoxic: at 70.3 µM (top of the series) unless noted; also: potency is read from the fitted curve at half-maximal effect; nearly all actives have a fitted effect of over 50% in size
# Summary of the method: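 Viability of T3-stimulated (1 nM final) GH3.TRE-Luc cells is measured by CellTiter-Fluor fluorescence after 23.5 h compound exposure at 37 °C plus 30 min reagent incubation.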
# [4] = qHTS assay to identify small molecule antagonists of the estrogen receptor alpha (ER-alpha) signaling pathway - cell viability counter screen (AID 743074; calls by dose curve;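 also: HEK293 cells carrying ER-alpha-UAS-bla reporter stimulated with 17beta-estradiol; nearly all actives have a fitted effect of over 45% in size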; also: potency is read from the fitted curve at half-maximal effect; as to activity, negative = cytotoxicity: % is scaled to controls: 0 for no effect and ±100 for the full control effect); details: ERalpha-bla HEK293 viability, CellTiter-Glo luminescence, 18 h; series mostly up to 69.4 µM
# [5] = qHTS assay to identify small molecule antagonists of the androgen receptor (AR) signaling pathway using the MDA cell line - cell viability counter screen (AID 743041; also: % is scaled to controls: 0 for no effect and ±100 for the full control effect; nearly all actives have a fitted effect of over 45% in size); details: MDA-kb2 viability, CellTiter-Fluor, 16 h, cells co-treated with R1881 androgen agonist; viability change, negative = cytotoxic: at 70.3 µM (top of the series) unless noted
# Summary of the method: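 MDA-kb2 AR-luc cells (MMTV-luciferase, AR/GR responsive) treated with compounds plus R1881 agonist for 16 h at 37C. CellTiter-Fluor added at 15.5 h; fluorescence read after 30 min in the same wells.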
# [6] = system: thyroid hormone receptor (rat, GH3 cells); assay: qHTS assay to identify small molecule agonists of the thyroid receptor (TR) signaling pathway (AID 743066; calls by dose curve; also: % is scaled to controls: 0 for no effect and ±100 for the full control effect); details: GH3.TRE-Luc cells, TR agonist luciferase, 24 h; activation: at 83.9 µM (top of the series) unless noted
# [7] = qHTS assay to identify small molecule antagonists of the androgen receptor (AR) signaling pathway - cell viability counter screen (AID 743033; also: % is scaled to controls: 0 for no effect and ±100 for the full control effect; nearly all actives have a fitted effect of over 45% in size); details: AR-bla HEK293 viability, CellTiter-Glo luminescence, 16 h; activity change, negative = cytotoxicity: at 58.5 µM (top of the series)
# [8] = qHTS assay to identify small molecule antagonists of the thyroid receptor (TR) signaling pathway (AID 743065); details: GH3.TRE-Luc, T3-stimulated luciferase inhibition, 23.5 h; series mostly up to 70.3 µM; also: % is scaled to controls: 0 for no effect and ±100 for the full control effect; nearly all actives have a fitted effect of over 55% in size
# Summary of the method: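 GH3.TRE-Luc rat pituitary cells (two TREs driving luciferase) were dosed with compound, then stimulated with 1 nM T3 (final) for 23.5 h at 37 C. ONE-Glo luminescence was the read-out, with CellTiter-Fluor fluorescence as the cytotoxicity counter-screen.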
# [9] = molecular target: Estrogen receptor (Homo sapiens) (UniProt P03372); assay: qHTS assay to identify small molecule antagonists of the estrogen receptor alpha (ER-alpha) signaling pathway (AID 743069; active = well fitted curve in the direction sought with a large enough effect in the signal ratio in the repeat runs, not every such curve was filed as active; inconclusive = weak or mixed curves, or effect the other way; inactive = no such curve, though single readings can be large or run the other way; the % refers to the signal ratio; also: % is scaled to controls: 0 for no effect and ±100 for the full control effect); details: HEK293 ER-alpha-UAS-bla, beta-lactamase ratio, antagonist mode; activity, negative = inhibition: at 69.4 µM (top of the series) unless noted
# Chain of UniProt P03372 (P03372 whole entry, looked up): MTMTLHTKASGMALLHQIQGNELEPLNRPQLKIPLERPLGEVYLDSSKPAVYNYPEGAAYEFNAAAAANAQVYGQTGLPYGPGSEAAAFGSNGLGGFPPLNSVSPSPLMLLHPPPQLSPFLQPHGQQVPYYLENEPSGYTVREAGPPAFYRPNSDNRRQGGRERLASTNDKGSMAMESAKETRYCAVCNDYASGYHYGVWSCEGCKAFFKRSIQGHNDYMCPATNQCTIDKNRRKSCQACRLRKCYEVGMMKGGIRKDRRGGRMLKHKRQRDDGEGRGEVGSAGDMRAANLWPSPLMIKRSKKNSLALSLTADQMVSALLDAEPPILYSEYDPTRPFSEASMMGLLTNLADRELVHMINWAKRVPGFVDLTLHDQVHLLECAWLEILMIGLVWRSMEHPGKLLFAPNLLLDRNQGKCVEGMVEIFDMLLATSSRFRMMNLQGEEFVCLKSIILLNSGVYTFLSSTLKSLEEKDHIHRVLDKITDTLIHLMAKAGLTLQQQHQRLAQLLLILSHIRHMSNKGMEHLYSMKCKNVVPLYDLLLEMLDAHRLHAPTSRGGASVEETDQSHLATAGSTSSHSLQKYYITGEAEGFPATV
# Summary of the method: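 HEK293 ER-alpha-UAS-bla GripTite cells, held overnight in 2% charcoal-stripped FBS, 5,000 cells/well, preincubated 4 h, then compound plus 17beta-estradiol for 18 h at 37C. Beta-lactamase read by LiveBLAzer B/G FRET substrate, 2 h at room temperature.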
# [10] = molecular target: Estrogen receptor (Homo sapiens) (UniProt P03372); assay: qHTS assay to identify small molecule agonists of the estrogen receptor alpha (ER-alpha) signaling pathway (AID 743075; calls by dose curve; also: potency is read from the fitted curve at half-maximal effect); details: HEK293 ER-alpha-UAS-bla, beta-lactamase FRET ratio, 18 h; series mostly up to 70.1 µM
# [11] = molecular target: Estrogen receptor (Homo sapiens) (UniProt P03372); assay: qHTS assay to identify small molecule agonists of the estrogen receptor alpha (ER-alpha) signaling pathway using the BG1 cell line (AID 743079); details: BG1Luc4E2 cells, ERE-luciferase agonist, 22 h; activation: at 70.3 µM (top of the series) unless noted; also: % is scaled to controls: 0 for no effect and ±100 for the full control effect; nearly all actives have a fitted effect of over 20% in size
# Tags tell the direction and shape of the fitted curve or compound fluorescence and quenching.
structure (smiles),measurement,setting,value
CCCCCCCC/C=C\CCCCCCCC(=O)O,Potency,[1],"inconclusive: 68.6 µM [cytotoxic, single point]"
same,Potency,[2],"inconclusive: 68.6 µM [cytotoxic, single point]"
same,Potency,[3],"inconclusive: 13.3 µM [cytotoxic, single point]"
same,Potency,[4],"inactive and inconclusive: 24.7 µM [cytotoxic, partial curve]"
CCC/C=C/C=O,Potency,[1],inactive
same,Potency,[2],inactive
same,Potency,[5],inactive
same,Potency,[6],inactive
CCC(C)[O-].CCC(C)[O-].CCOC(=O)/C=C(/C)[O-].[Al+3],Potency,[1],inactive
same,Potency,[2],"inconclusive: 61.1 µM [cytotoxic, partial curve, poor fit]"
CC(=O)CCC1=C(C)CCCC1(C)C,Potency,[1],"inconclusive: 61.1 µM [cytotoxic, single point]"
same,Potency,[2],"inconclusive: 68.6 µM [cytotoxic, single point]"
same,Potency,[7],inactive
same,Potency,[8],inactive
same,"activity, negative = inhibition",[9],inconclusive: 30.5%
same,Potency,[4],inactive
same,Potency,[10],"inconclusive: 49 µM [activator, partial curve, poor fit]"
same,Potency,[11],inactive
C#CC(C)(O)CC(C)C (stereo not given),Potency,[1],inactive
CNS(=O)(=O)CCc1ccc2[nH]cc(C3CCN(C)CC3)c2c1,Potency,[1],"inconclusive: 8.41 µM [rising, partial curve, poor fit]"
same,Potency,[2],inactive
same,Potency,[3],"inconclusive: 33.5 µM [rising, single point]"
same,Potency,[4],"inconclusive: 19 µM [rising, partial curve]"
IC(I)I,Potency,[1],"inactive and inconclusive: 68.6 µM [cytotoxic, single point]"
same,Potency,[2],"inconclusive: 68.5 µM [cytotoxic, single point] and inconclusive: 68.6 µM [cytotoxic]"
